The other results are listed elsewhere or left out. These are further read-outs of the screen, such as a control signal, another cell line or another target. No call is given for them. Compounds called inactive in the main read-out are mostly missing here. The note in brackets gives the kind of curve behind each potency; many fits are weak.

The test can be described thus: qHTS Assay for Lipid Storage Modulators (AID 1519). The note with it: Drosophila S3 cells, BODIPY lipid droplet/cell ratio, laser cytometry, cells loaded with oleic acid. Put shortly:
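Cells seeded at 5,000 per well were treated with compounds over a concentration series and loaded with oleic acid (400 uM, as added). Lipid droplet fluorescence (488 nm excitation, 500-530 nm channel) was read by laser-scanning cytometry and normalized to 20 uM Triacsin C.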

Where [1] appears, read: measured here: cell count channel max response.
[2] abbreviates: measured here: lipid (BODIPY) channel AC50.
Setting [3] is: measured here: lipid channel max response.
Setting [4] is: measured here: cell number channel AC50.
Tags give direction and shape of the fitted curve.

The term AC50 denotes the concentration giving half of the maximal activity seen. With `CCn1cc(C(=O)O)c(=O)c2cnc(N3CCCC3)nc21`, the max response by setting is: under setting [1], 18.9%; under setting [3], 34.3%. Moreover, the AC50 under setting [2] was 39.8 µM [rising, single point].
On to `N#CCCn1c(=O)c(-c2ccccc2)nc2cnc(N3CCOCC3)nc21`, for which the max response reads like this: under setting [1], 28.8%; under setting [3], 33.5%. For the same compound, under setting [2], the AC50 is 0.141 µM [rising, full curve].
In the case of `COc1cc(OC)c(C(=O)CCCCN2CCC3(CC2)NC(=O)NC3=O)cc1NS(=O)(=O)c1ccc(C(F)(F)F)cc1`, the max response worked out at 32.8% under setting [1] and 42.7% under setting [3]. For the same compound, the AC50 under setting [4] is 39.8 µM [rising, single point].
Regarding `COCCn1c(=O)c(-c2cccc(C#N)c2)nc2cnc(OCc3ccccc3)nc21`, the max response under setting [1] was determined as 5.94% and the max response under setting [3] is -3.04%. Also, the AC50 under setting [2] is 0.447 µM [rising, full curve, poor fit].
Take `O=C(c1ccco1)N1CCC2(CC1)CCN(c1ccccn1)CC2`: the max response runs as follows: under setting [1], 25.7%; under setting [3], 42%. Further, the half-maximal activity concentration (AC50) under setting [2] is 0.282 µM [rising, full curve].
Regarding `C=C1CCC2C(CC2(C)C)C(=O)CCC1O` (centres undefined), the max response reads like this: under setting [1], 27.1%; under setting [3], 31%. Further, the half-maximal activity concentration (AC50) under setting [2] is 14.1 µM [rising, partial curve, poor fit].
Take `O=C(NC(CO)C(O)c1ccc([N+](=O)[O-])cc1)C(Cl)Cl` (centres undefined): the max response by setting is: under setting [1], 28.2%; under setting [3], 53.8%. Besides, under setting [2], the AC50 was 0.126 µM [rising, full curve, poor fit].
For the compound `COc1cccc(Nc2ncc3nc(-c4cn(C)c5ccccc45)c(=O)n(C[C@H]4CCCO4)c3n2)c1`, the max response was found to be 33.5% under setting [1] and 8.09% under setting [3]. Also, the AC50 under setting [4] is 0.447 µM [rising, full curve, poor fit].
For the compound `COCC(=O)N1CCC2(CC1)CN(C(=O)Nc1ccccc1)C2`, the max response reads like this: under setting [1], 17.5%; under setting [3], 21.6%. In addition, the half-maximal activity concentration (AC50) under setting [2] is 0.02 µM [rising, full curve, poor fit].
On to `CCNc1ncc2nc(-c3ccc(F)cc3)c(=O)n(CCC#N)c2n1`, for which the max response by setting is: under setting [1], 17.3%; under setting [3], 27.1%. In addition, the AC50 under setting [2] was 0.2 µM [rising, full curve, poor fit].
Take `CS(=O)(=O)N1CCC[C@@]2(CCN(C(=O)Nc3cccc(C#N)c3)C2)C1`: the max response reads like this: under setting [1], 14.4%; under setting [3], 24.1%. Further, under setting [2], the concentration at half-maximal activity (AC50) was 0.0112 µM [rising, full curve, poor fit].
Consider `c1ncc(-c2ccc3c(c2)OCO3)c(NCCc2cnc[nH]2)n1`, for which the max response is, setting by setting: under setting [1], 23%; under setting [3], 32.5%. Besides, the half-maximal activity concentration (AC50) under setting [2] was 0.631 µM [rising, full curve, poor fit].
On to `CCNc1ncc2nc(-c3ccc(F)cc3)c(=O)n(-c3ccccc3)c2n1`, for which the max response came to 24% under setting [1] and 25% under setting [3]. For the same compound, the AC50 under setting [2] was 0.0447 µM [rising, full curve].
Regarding `COC(=O)N1CCC2(CCCN(c3cccc(-c4ccccc4)c3)C2)CC1`, the max response under setting [1] worked out at 1.17% and the max response under setting [3] is -93.3%. The AC50 under setting [2] was 39.8 µM [falling, single point].
Regarding `COc1ccc(-n2c(=O)c(-c3ccc(Cl)cc3)nc3cnc(N4CCOCC4)nc32)cc1`, the max response is, setting by setting: under setting [1], 19.9%; under setting [3], 25.5%. Besides, the concentration at half-maximal activity (AC50) under setting [2] was 0.178 µM [rising, full curve].
Take `O=c1c(-c2ccc(Cl)cc2)nc2cnc(Oc3ccccc3)nc2n1C1CC1`: the max response is, setting by setting: under setting [1], 6.18%; under setting [3], 0.832%. The half-maximal activity concentration (AC50) under setting [2] was 0.0794 µM [rising, full curve].
As for `O=c1c(CCc2ccccc2)nc2cnc(Nc3ccccc3)nc2n1C[C@H]1CCCO1`, the max response by setting is: under setting [1], 27.2%; under setting [3], -33.2%. The concentration at half-maximal activity (AC50) under setting [2] is 0.355 µM [rising, partial curve, poor fit].
On to `CCCC[C@H]1C(=O)N(c2ccccc2)N(c2ccc(O)cc2)C1=O`, for which the max response is -19.5% under setting [1] and -45.7% under setting [3]. The AC50 under setting [2] is 15.8 µM [falling, single point].
As to `CCC(=O)c1c(O)cc(O)cc1O`, the max response under setting [1] was 21.8% and the max response under setting [3] was determined as 46.3%. Also, the AC50 under setting [2] was 22.4 µM [rising, partial curve, poor fit].
With `O=C(c1cnccn1)N1CCC2(CC1)CN(c1ccccc1)C2`, the max response under setting [1] is 10.4% and the max response under setting [3] amounted to 17.1%. For the same compound, under setting [4], the concentration at half-maximal activity (AC50) was 0.282 µM [rising, full curve, poor fit].
With `COc1cccc(Nc2ncc3ncc(=O)n(C4CC4)c3n2)c1`, the max response under setting [1] stood at 12.8% and the max response under setting [3] came out at 15%. Further, under setting [4], the AC50 is 0.251 µM [rising, partial curve, poor fit].
Consider `COc1cc2c(cc1OC)C(=O)OC2`, for which the max response by setting is: under setting [1], 24.8%; under setting [3], 44.1%. In addition, the half-maximal activity concentration (AC50) under setting [2] was 15.8 µM [rising, partial curve].
In the case of `COc1ccc(NC(=O)N2CCC3(CC2)CCN(C(=O)c2cccc(F)c2)CC3)cc1`, the max response is 26.7% under setting [1] and 37% under setting [3]. The AC50 under setting [2] is 0.0398 µM [rising, full curve, poor fit].
Take `COCCNc1ccnc(-c2c(C)noc2C)n1`: the max response under setting [1] worked out at 21% and the max response under setting [3] turned out to be 31.4%. Besides, the concentration at half-maximal activity (AC50) under setting [2] was 20 µM [rising, partial curve].
Take `FC(F)(F)c1ccccc1-c1nc(-n2ccnc2)c2ccccc2n1`: the max response under setting [1] was 21.6% and the max response under setting [3] was 28.5%. Further, the concentration at half-maximal activity (AC50) under setting [4] is 3.98 µM [rising, partial curve].
Consider `CN(C)c1ccc(-c2cc(N(C)Cc3ccco3)ncn2)cc1`, for which the max response is, setting by setting: under setting [1], 21.5%; under setting [3], 4.9%. Also, under setting [4], the AC50 is 7.94 µM [rising, partial curve, poor fit].
Take `O=c1c(-c2cc(F)cc(F)c2)nc2cnc(Oc3ccccc3)nc2n1C1CC1`: the max response runs as follows: under setting [1], 20.5%; under setting [3], 24.5%. Further, the half-maximal activity concentration (AC50) under setting [2] is 0.00891 µM [rising, full curve, poor fit].
In the case of `COc1ccc(C(=O)N2CCC3(CCCN(C(=O)NC(C)C)C3)CC2)cc1`, the max response is, setting by setting: under setting [1], 23.7%; under setting [3], 33%. Further, the AC50 under setting [2] was 0.0316 µM [rising, full curve, poor fit].

These data come from PubChem BioAssay (NCATS).
